Measurements as given in the supplement of paper PMC10126150.
Sequences with one replicate were seen in a single cluster, so their values are uncertain.

Test system: ATP
Assay: switch fluorescence ratio, 500 uM ATP over buffer (Cy3 cluster intensity, sum of 5 cycles each) (fold (ratio)); higher = stronger signal-on switching upon ATP binding; sequences stand for … in TCGTCGGCAGCGTCAGATGTGTATAAGAGACAGTTTTTTTTTTTTTTTTTTTTTTTTT…TC
Details: aptamer strand: ATP DNA aptamer (quencher-CACCTGGGGGAGTATTGCGGAGGAAGG + anchor), 100 nM annealed; ATP concentration: 500 uM; one replicate
Summary of the method: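 After annealing to 100 nM quencher-labelled ATP aptamer, Cy3-labelled switching-strand clusters on a modified Illumina MiSeq flow-cell were imaged in selection buffer. A second image followed after 15 min with 500 uM ATP at 22 °C, and five such buffer/ATP cycles were done, each separated by NaOH stripping and re-annealing. The fluorescence ratio, averaged per switch-domain sequence, is summed target-cycle over summed buffer-cycle Cy3 intensity per cluster, with clusters outside 100-1000 RFU excluded.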
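Note: ATP exposure 15 min at 22 °C before imaging.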

Row | Sequence | switch fluorescence ratio
1 | GAAATTATTC | 0.999
2 | AGCCTGTTGT | 0.962
3 | AACACGATTG | 1.06
4 | GGGCCATCCT | 1.02
5 | TCCTAGTTAT | 1.08
6 | GGTCTAGTGT | 0.987
7 | TATTTACGGT | 1.53
8 | TTTATCCCGT | 0.998
9 | CGGCGCCGGC | 1.02
10 | ACTTTAGACA | 1.03
11 | GATGTCATTC | 0.977
12 | CTCATGCACC | 1.49
13 | GAGCGATTCA | 1.04
14 | TAATAAGGTT | 0.999
15 | ACCAGATCGG | 0.976
16 | GCACATTTAC | 1.31
17 | CGCCCGC | 1.14
18 | TTTAATAGGA | 0.999
19 | CAATGCCGCG | 1.05
20 | ATGGTACAGT | 0.995
21 | GAGGTACATC | 0.993
22 | AGACCAGGCA | 1.02
23 | GGAGTCGACT | 1.09
24 | GGCGACTTAC | 1.12
25 | CGAGTTCACG | 1.02
26 | CCATGGGATT | 0.979

Row | Sequence | switch fluorescence ratio
27 | CTGTAGTTAG | 1.08
28 | AAAACCAGAT | 0.995
29 | CCTACTGGAC | 1.19
30 | AGCAGTGGTC | 1.05
31 | ACTTGCTTCC | 2.23
32 | TAGTTCGCGG | 0.972
33 | TAATTGGCGT | 0.963
34 | ACATGCGCAG | 1.02
35 | AGCGGATAGG | 1.06
36 | TGATCGAATA | 0.991
37 | CCGTGAGCCA | 2.13
38 | CAAGGTCTGG | 0.998
39 | TCAATCATG | 1.02
40 | ATACCTCGCC | 1.63
41 | AGGCAATCAC | 3.59
42 | AAATGTAGGG | 1
43 | CTGAGTGATT | 1.05
44 | ACGATGTCAA | 1.09
45 | GCGAAGGGTA | 1.01
46 | GCGGCCGGC | 1.09
47 | ACATGCAGT | 0.992
48 | CGTGCCATGA | 0.993
49 | CGTAGTGGC | 1.15
50 | TTGAAGCGG | 1.02
51 | AATGCGGATC | 1.05
52 | ATGGTAGTTC | 1.02

Row | Sequence | switch fluorescence ratio
53 | GCTCTGGACA | 1.09
54 | GAGTTCTGGA | 0.988
55 | TTTCTGCGAT | 1.23
56 | AAGTCCGTAT | 1
57 | TTTGATAGCA | 1.07
58 | TTGGCGGCAT | 0.967
59 | GTGCGATCTC | 1.26
60 | TTCTTTCCCT | 1.1
61 | TGGTCAGACT | 0.977
62 | AACGAATCTT | 1.03
63 | CTGGGGTGCC | 1.03
64 | AATGCTCATT | 0.949
65 | TATCGTATAG | 0.963
66 | GATGGATCG | 0.959
67 | ATTCGGGTA | 0.984
68 | TAAAGTCATC | 1
69 | ATGGGCGTC | 1.01
70 | TTCCGGGGCA | 1.61
71 | CGTGAATATT | 1.16
72 | CCAAAGCCCA | 1.15
73 | GCATCCCTGG | 1.28
74 | ACTAATGTAA | 0.99
75 | GTATTTGAAC | 0.998
76 | CGATGAGCGG | 0.973
77 | AATAATCTAG | 0.998
78 | GTCTGGGATA | 0.974

Row | Sequence | switch fluorescence ratio
79 | TAGGAGGTTG | 0.935
80 | AATTGAGGTG | 1.03
81 | CGTGAATGAA | 0.955
82 | TAGACGGTGG | 1.08
83 | CGTAGTGCGT | 0.962
84 | CACACTTTTG | 0.973
85 | ACGCTTGGTG | 1.11
86 | TGCTAATTAG | 1.01
87 | GCCGAGTCCT | 1.01
88 | TTGCACGGAA | 1.11
89 | CGTAGGTGGG | 0.986
90 | CAGAACGTCT | 1.03
91 | GTTGGGATGC | 1.02
92 | TTTCTTACTA | 1.07
93 | CACATTTTGA | 0.998
94 | CGATTACCCG | 1.05
95 | ATCTCGAATC | 1.05
96 | ACCTATAATA | 1
97 | CCAGTCCGTG | 0.999
98 | CCAAGTCCCT | 0.988
99 | CATGTTGTTT | 0.968
100 | ACTAAGCCTT | 1.13
101 | CTCCCAAGGA | 2.62
102 | TTTACGTGGG | 1.01
103 | CGCCGTAACT | 1
104 | TTATCGCCTT | 1.02

Row | Sequence | switch fluorescence ratio
105 | AAGGCGACTT | 1.07
106 | GCGGGCTTCT | 0.968
107 | CGAACGCCGG | 1.04
108 | CATGAGCCAC | 1
109 | CGGGCACGAC | 0.997
110 | ACTAAGCACG | 1.12
111 | AGTTTTCGCT | 0.973
112 | CAAGTACTGG | 1
113 | AACGTGGTTC | 1.04
114 | TTCCTGGCTG | 1.05
115 | CTCACGCTTA | 2.55
116 | AGAGTCCAAC | 1
117 | GTACTTTGTG | 0.992
118 | AGATTGCGGC | 0.999
119 | AATTCAACCG | 1.07
120 | AGTACTTCTG | 0.986
121 | TATGCTGTGT | 1.05
122 | TTCCTGACCG | 0.977
123 | TGCGGGCGGG | 1.04
124 | TCGCCCTCAT | 1.03
125 | GCCTTAGAGA | 0.972
126 | CGCCACGAGA | 1.02
127 | AGAAGTTATG | 0.979
128 | AACGGGGGTA | 1.03
129 | CAATAGGTTG | 0.994
130 | GGTGCTTGAA | 0.974

Row | Sequence | switch fluorescence ratio
131 | TATCCCGTTG | 1.03
132 | AACATGAGA | 0.982
133 | GAAAAAACTC | 1.11
134 | CGGTGTCAG | 0.994
135 | TGCTGGGTAG | 1.01
136 | TCCAGTGAAT | 1.07
137 | AGGGACTG | 1.03
138 | CAGCCGCAT | 2.57
139 | TGTTCTCTGC | 1.05
140 | AGTTAAATAG | 1
141 | GGAGGCATCA | 0.952
142 | GGCATTTCG | 1.34
143 | TTATAGCTTG | 0.994
144 | TCTGCCTCGT | 1.01
145 | GGGAGTCTCA | 1.01
146 | GGGAGTCCGG | 0.991
147 | AGCTCTGAAC | 1.04
148 | AACAGGGTC | 0.972
149 | AGGTGGAGAT | 0.98
150 | CTTTTCCCGA | 1.02
151 | GTGGTTACCT | 1.09
152 | TGCGTGAGAA | 1.01
153 | AGCAAGTTTT | 0.99
